# Among all 350,000 compounds or so, about 9,900 (2.8%) were called active. Inconclusive results, whose numbers are uncertain, are shown with a selection of clear calls. Calls follow the shape of the dose curve; as a rule, active = well fitted activation curve with a large enough effect; inconclusive = small, poorly fitted or top-dose-only effect; inactive = no such curve, though single readings can be large or run the other way. Potencies of inconclusive entries are left out as doubtful fits.
# Assay: A quantitative high throughput screen for small molecules that induce DNA re-replication in MCF 10a normal breast cells. Also: nearly all actives have a fitted effect of over 50% in size.
# Details: MCF 10A DNA re-replication, Hoechst nuclear intensity, 48 h; series mostly up to 46.1 µM
# Description: H Molecular Libraries Probe Production Network [MLPCN]
# NIH Chemical Genomics Center [NCGC]
# Assay Provider: Melvin DePamphilis, NICHD, NIH
# Eukaryotic cells normally restrict genome duplication to once per cell division. When this process is aberrant, DNA re-replication occurs when cells reinitiate DNA replication before the first round of replication is complete. DNA re-replication induces the DNA damage response, arrests cell proliferation, and triggers apoptosis. The cell cycle components cyclin A, Cdt-1, Cdc6 and geminin are critical regulators of this process and their misregulation results in DNA re-replication in normal and cancer cells. To identify compounds that induce re-replication in normal cells, an image-based assay was used to measure DNA content of nuclei, as detected by the fluorescent DNA binding dye, Hoechst. Cell nuclei were imaged by a fluorescence scanning plate imager and compounds that induce DNA re-replication were identified by the increase of nuclei with elevated fluorescence intensity
# For screening, 250 cells in 5 uL/well were dispensed into black clear 1536-well plates (Aurora) using a solenoid-based dispenser. Following transfer of 23 nL compound or DMSO vehicle by a pin tool, the plates were incubated 48 hr at 37 C and 5% CO2. After addition of 1 uL/well Hoescht stain, the plates were incubated 40 min at 37 C, 5% CO2 and total intensity of fluorescent objects (nuclei) were enumerated by an Acumen Explorer Ex3 (TTP LabTech) fluorescence scanning plate imager (405 nm excitation, 500-530 nm emission).
# Keywords: NIH Roadmap, MLPCN, MLI, MLSMR, qHTS, NCGC, DNA replication, cancer
# Potency is read from the fitted curve at half-maximal effect; tags tell the direction and shape of the fitted curve.
row,SMILES,Potency
1,CC1C(c2ccccc2)N(C)C(c2ccccc2)CC1(O)c1ccc(F)cc1 (stereo not drawn),"inconclusive [activator, single point]"
2,CCOC(=O)c1cnc2ccc(C)cc2c1Sc1ccc(F)cc1,"inconclusive [activator, single point]"
3,COc1cccc(N(CC(=O)Nc2cccc(N(C)S(C)(=O)=O)c2)S(C)(=O)=O)c1,"inconclusive [activator, full curve, poor fit]"
4,COc1ccc(C2=C(C=Nc3c(C)n(C)n(-c4ccccc4)c3=O)C(c3ccccc3C)c3ccccc3O2)cc1OC (stereo not drawn),inactive
5,O=c1ccc(NS(=O)(=O)c2ccc(Cl)cc2)cn1Cc1ccc(Cl)c(Cl)c1,"inconclusive [activator, single point]"
6,COc1ccc(CCNC(=O)c2csc3c2CCCC3)cc1,inactive
7,CC1=NN(c2nc(-c3ccccc3)cs2)C(=O)C1,"inconclusive [activator, single point]"
8,COc1ccc(N(C(=O)c2cccnc2)S(=O)(=O)c2ccc3c4c(cccc24)C(=O)N3C)cc1,"inconclusive [activator, single point]"
9,CCCCn1c(=O)[nH]c(=O)c2c1nc(-c1ccc(OCCC)c(OCC)c1)n2CCOC,active: 23.1 µM
10,Cc1ccc(C)c(OCC(O)CN2CCC(CN3C(=O)c4cccc5cccc(c45)C3=O)CC2)c1 (stereo not drawn),"inconclusive [activator, full curve, poor fit]"
11,COCCC(=O)N1CCC(Oc2ccc(C(=O)NCc3nccn3C)cc2)CC1,inactive
12,Cc1nn(-c2ccccc2)nc1C(=O)Nc1ccc2c(c1)OCCO2,"inconclusive [activator, single point]"
13,CCOc1cc(/C=C2\CCCC(C(=O)C(F)(F)F)=C2O)ccc1O,active: 18.4 µM
14,COc1ccc([C@H]2[C@H]3C=CC[C@@H](C)[C@@H]3C(=O)N2Cc2ccccc2)cc1Cl,"inconclusive [activator, single point]"
15,O=C(Nc1ccccc1)C(Cc1ccccc1)c1ccccc1 (stereo not drawn),inactive
16,CCC(CC)c1nc(C#N)c(NCc2ccccc2)o1,"inconclusive [activator, single point]"
17,CC1(C)Oc2ccc3ccc(=O)oc3c2/C(=C/Nc2ccccc2)C1=O,"inconclusive [activator, partial curve, poor fit]"
18,O=S(=O)(Nc1ncnc2scc(-c3ccc(F)cc3)c12)c1cc(F)ccc1F,"inconclusive [activator, single point]"
19,COc1ccc(OC)c(/C=N/c2oc(-c3ccco3)c(-c3ccco3)c2C#N)c1,"inconclusive [activator, single point]"
20,COc1ccc(-n2c(C)cc3cc(OC(C)=O)ccc32)cc1,"inconclusive [activator, single point]"
21,CC(C)N(Cc1nc(-c2ccccc2)no1)C(=O)CCCN1C(=O)c2ccccc2C1=O,inactive
22,COC(=O)c1cc2nc(-c3ccc(C)cc3)cc(C(F)(F)F)n2n1,"inconclusive [activator, full curve, poor fit]"
23,CCOc1ccccc1N1CCN(C(=O)c2ccc3[nH]c(C)c(C)c3c2)CC1,"inconclusive [activator, partial curve, poor fit]"

row,SMILES,Potency
1,Cc1ccc(C)c(Cn2cnc3c(nnn3-c3ccc(F)cc3)c2=O)c1,"inconclusive [activator, partial curve, poor fit]"
2,Cn1cccc1C(=O)NC1CCCCC1,inactive
3,O=S1(=O)NC(C2CC2c2ccccc2)CCO1 (stereo not drawn),inactive
4,Cc1ccccc1C(=O)NNC(=O)C1CCN(C(=O)Nc2ccccc2)CC1,"inconclusive [activator, partial curve, poor fit]"
5,O=C(Cc1ccccc1)Nc1ncnc2c1C(c1ccccc1)c1c(ccc3ccccc13)O2 (stereo not drawn),"inconclusive [activator, partial curve, poor fit]"
6,O=C(Nc1c(Cl)ccc2nsnc12)c1ccc([N+](=O)[O-])o1,"inconclusive [activator, full curve, poor fit]"
7,CC(=O)c1cnc2nc(SCc3ccccc3C)nn2c1C,"inconclusive [activator, partial curve]"
8,Cc1ccc(S(=O)(=O)NN2C(=O)c3ccccc3NC2c2ccccc2O)cc1 (stereo not drawn),inactive
9,O=C(Cc1ccccc1F)Nc1ccccc1N1CCCC1,inactive
10,COc1cc(OC)cc(C(=O)/C=C2\Sc3ccccc3N2C)c1,"inconclusive [activator, full curve]"
11,CC(C)CN(C(=O)CCCOc1ccc(Cl)cc1Cl)c1c(N)n(Cc2ccccc2)c(=O)[nH]c1=O,inactive
12,CCOc1ccccc1N1CCN(C(=O)CNC(=O)c2sc3ccccc3c2Cl)CC1,"inconclusive [activator, partial curve, poor fit]"
13,CN(C)c1ccc(/C=C(\NC(=O)c2ccccc2)C(=O)NCCN2CCOCC2)cc1,inactive
14,CCN(CC(=O)Nc1sc2c(c1C#N)CCC(C)C2)CC(=O)NC1CCS(=O)(=O)C1 (stereo not drawn),inactive
15,CC1C/C(=N\NC(=S)NCc2ccccc2)CC(C)(C)C1 (stereo not drawn),inactive
16,CSc1nc(C)c(Cl)c(C)c1C#N,"inconclusive [activator, partial curve, poor fit]"
17,O=C(Nc1ccc(Br)cc1)c1cc(Br)c(Br)s1,"inconclusive [activator, partial curve]"
18,Cn1ncc2c(NCc3ccccc3)ncnc21,"inconclusive [activator, partial curve, poor fit]"
19,CC[C@]12c3[nH]c4cc(CCC(=O)N(C)C)ccc4c3CCN1C(=O)[C@@H](CC(=O)NCc1ccc(OC)c(OC)c1)C[C@@H]2C(=O)N1CCN(C(=O)c2ccco2)CC1,inactive
20,CS(=O)(=O)Nc1cccc(C2=NN(S(=O)(=O)c3ccc(F)cc3)C(c3cccs3)C2)c1 (stereo not drawn),"inconclusive [activator, single point]"
21,CCCC(=O)Nc1nc(C)c(-c2csc(Nc3ccc(Cl)cc3)n2)s1,"inconclusive [activator, single point]"
22,CCOc1ccccc1NC(=O)CCc1ccc(C)o1,inactive
23,CN1CCN(NC(=O)COc2cccc(C(F)(F)F)c2)CC1,inactive

row,SMILES,Potency
1,N#C/C(=C\C=C\c1ccccc1)c1nc(-c2ccc(Cl)cc2)cs1,"inconclusive [activator, full curve, poor fit]"
2,COC(=O)[C@]1(C)CCC[C@@]2(C)C3CC[C@@]4(C)C[C@]3(CCC21)CC(=O)N4 (stereo partly drawn),inactive
3,N=c1c(C(=O)NCC2CCCO2)cc2c(=O)n3ccccc3nc2n1Cc1ccco1 (stereo not drawn),"inconclusive [activator, partial curve]"
4,Cc1cc(NC(=O)/C=C/C(=O)N(CC(=O)NC2CCCC2)c2ccc(F)cc2)no1,"inconclusive [activator, single point]"
5,COc1ccccc1CNC(=O)C(NC(=O)c1ccccc1)C(C)C (stereo not drawn),"inconclusive [activator, single point]"
6,O=C(N/N=C/c1ccc(Cl)c([N+](=O)[O-])c1)c1cc(-c2ccccc2)nc2ccccc12,active: 11.6 µM
7,CCOc1ccccc1C(=O)NC1CC2CCCC(C1)N2Cc1ccc(C)cc1 (stereo not drawn),"inconclusive [activator, single point]"
8,CC(C)Oc1ccc(CC2CCC(=O)N(C)C2=O)cc1 (stereo not drawn),inactive
9,CNC(=O)C1C(=S)NC(N)=C(C#N)C1c1ccccc1 (stereo not drawn),"inconclusive [activator, single point]"
10,COc1ccc(N2CCN(CC(=O)N3CCC(C)CC3)CC2)cc1,inactive
11,COc1ccc(-n2c(O)c(/C=N/NS(=O)(=O)c3ccc(C)c([N+](=O)[O-])c3)c3ccccc3c2=O)cc1OC,"inconclusive [activator, partial curve, poor fit]"
12,COc1ccccc1N1CCN(C(=O)c2ccc(CN3CCc4ccccc4C3)cc2)CC1,"inconclusive [activator, partial curve]"
13,COC(=O)CSC1=C(C#N)C(c2ccc(F)cc2)CC(=O)N1 (stereo not drawn),inactive
14,COC(=O)c1c(NC(=O)COC(=O)c2ccc(NC(=O)CC#N)cc2)sc2c1CCCCC2,"inconclusive [activator, single point]"
15,O=c1c2ccccc2nc2sc3ccccc3n12,"inconclusive [activator, single point]"
16,CC(Oc1ccc(F)cc1)C(=O)/C=C\N(C)C (stereo not drawn),"inconclusive [activator, partial curve, poor fit]"
17,COc1cc(Cl)cc(/C=C/c2ccc3ccccc3n2)c1OC(C)=O,"inconclusive [activator, single point]"
18,C/C(=N\O)C(=O)NCCCNCCCN(C)C,inactive
19,CN(c1ccccc1)S(=O)(=O)c1ccc(Cl)c(C(=O)OCC(=O)c2c(N)n(C)c(=O)n(C)c2=O)c1,"inconclusive [activator, single point]"
20,CCO/N=C(/C)c1c(O)cc(C(C)(C)C)n(-c2ccccc2)c1=O,"inconclusive [activator, full curve, poor fit]"
21,COc1ccc(-n2c(N)c(C(=O)NCc3ccco3)c3nc4ccccc4nc32)cc1OC,active: 16.4 µM
22,O=C(NCC1CCCO1)c1ccc(Cl)c(S(=O)(=O)N2CCCCC2)c1 (stereo not drawn),inactive

# From PubChem BioAssay AID624296 (National Center for Advancing Translational Sciences (NCATS), 2012)
